Laboratory results reported in PMC7819943, “Rice protein-binding microarrays: a tool to detect cis-acting elements near promoter regions in rice”.
This is one part of the list.

The sequences below were run against T1, OsWOX13 (Oryza sativa, UniProt Q5QMM3 1-267) (assay: protein-binding microarray (RPBM); PBS, 2% BSA, 51.3 ng/ul salmon testes DNA, 50 uM zinc acetate, 200 nM TF, 25 C, 1 h; high values mean tight binding). Conditions: protein: recombinant; tags: N-terminal polyhistidine and DsRed monomer fusion (pET32a); label: CyDye5-dUTP incorporated in the synthesized complementary strand; 3' TTTTT single-stranded linker to array surface; dsDNA, one strand shown.
T1 sequence: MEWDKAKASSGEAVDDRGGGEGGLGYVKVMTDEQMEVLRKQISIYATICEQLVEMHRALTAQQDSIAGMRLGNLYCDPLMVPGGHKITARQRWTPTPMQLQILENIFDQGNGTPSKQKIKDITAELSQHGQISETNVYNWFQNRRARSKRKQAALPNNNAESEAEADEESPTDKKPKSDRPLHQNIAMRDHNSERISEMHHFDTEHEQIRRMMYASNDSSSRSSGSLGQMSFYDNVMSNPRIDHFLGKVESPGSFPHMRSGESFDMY
How it was run: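 Polyhistidine-tagged DsRed fusions of transcription factors, joined at the N-terminus, were expressed in E. coli BL21-CodonPlus and isolated on Ni–NTA. They were incubated at 200 nM for 1 h at 25 °C on a custom Agilent array, double-stranded and BSA-blocked, in PBS with 2% BSA, salmon testes DNA and 50 µM zinc acetate. The binding signal is per-feature fluorescence intensity (arbitrary units) read on an Axon 4000B scanner after washing.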

Row | Sequence | binding signal
1 | TTTGAAAATTAATTATAAATATTAAACGTAGACTATTAATCGGAGTCACCTAGTGCAG | 9000 fluorescence intensity (a.u.)
2 | AACCTTCGCTGTCTCAATCAGAAAACTGCTGTTTCCACCCCGGAGTCACCTAGTGCAG | 5010 fluorescence intensity (a.u.)
3 | TTTCTTTTGAAATTGATTACAATCTACATAAGGAGAGTCGCGGAGTCACCTAGTGCAG | 16500 fluorescence intensity (a.u.)
4 | CGAATCTGATTAAGGGTGTGTTTAGTTCACGCTAAAATTGCGGAGTCACCTAGTGCAG | 4820 fluorescence intensity (a.u.)
5 | AGCAATTAAGCAATCATTACTTCCGTTTCAAAACATAAGCCGGAGTCACCTAGTGCAG | 8040 fluorescence intensity (a.u.)
6 | TAAACACTAAATTACTTCCATTAAACCTAGCATTGAATATCGGAGTCACCTAGTGCAG | 6250 fluorescence intensity (a.u.)
7 | TGTTAACTCTTAGATTAATTTATAGATAGTGGTTTGCTCTCGGAGTCACCTAGTGCAG | 13400 fluorescence intensity (a.u.)
8 | TACTAATCATACACTGATGCGCTTAGAACTAACTTAACCACGGAGTCACCTAGTGCAG | 5730 fluorescence intensity (a.u.)
9 | ATCCGTTTTGATTAATGACCTAATCTCCAACTAAACTCCGCGGAGTCACCTAGTGCAG | 7260 fluorescence intensity (a.u.)
10 | ATAAGATTAGCTATAATCTTATCCAACAAAATTATGTGCTCGGAGTCACCTAGTGCAG | 27300 fluorescence intensity (a.u.)
11 | ATGTAATTAATTAAAATAAGCAAAGGTGCCCGTGCGTTGCCGGAGTCACCTAGTGCAG | 43700 fluorescence intensity (a.u.)
12 | CACACCTGACCTGACTAATCAGTAATCACCACTAATGCATCGGAGTCACCTAGTGCAG | 5140 fluorescence intensity (a.u.)
13 | GCAAATCACATTACCATGCAATCCCCGGCCCATAAGTCATCGGAGTCACCTAGTGCAG | 3810 fluorescence intensity (a.u.)
14 | CGAGTGCAATGTGATTGGTAGGGGTGGCTCAGGGAAAGTGCGGAGTCACCTAGTGCAG | 16600 fluorescence intensity (a.u.)
15 | ACTGATTTTAACTTACTACACACGATGGAAACACGATTGGCGGAGTCACCTAGTGCAG | 22200 fluorescence intensity (a.u.)
16 | TGTGACACATTATAATGAATCTGGATAGACGGACCGCCTACGGAGTCACCTAGTGCAG | 6200 fluorescence intensity (a.u.)
17 | CGACACGCTGATTAATTATTTGGCAAAATCGCGCTATATACGGAGTCACCTAGTGCAG | 19200 fluorescence intensity (a.u.)
18 | TATGAATAATTATAATAATTAATAATTTGCAAAATGGGCCCGGAGTCACCTAGTGCAG | 33800 fluorescence intensity (a.u.)
19 | CTTTCGCCGGTAAAATGGATTGATGGAAGCGTGTACCGTGCGGAGTCACCTAGTGCAG | 3940 fluorescence intensity (a.u.)
20 | TAATTAAGCTGAAAATTTTATTGACAGAAACAACGCAAAGCGGAGTCACCTAGTGCAG | 3500 fluorescence intensity (a.u.)
21 | ACAGAAATAAATGATTTATCTAAATGTTATTAATGAAATCCGGAGTCACCTAGTGCAG | 10900 fluorescence intensity (a.u.)

Row | Sequence | binding signal
22 | TACTTAATTAATCATGTGCTAATGGCTAACCTCGTTTTGCCGGAGTCACCTAGTGCAG | 33300 fluorescence intensity (a.u.)
23 | GAAGGGTTATGATTGGTTGAGAAGAGAATGTTGGTGGAGACGGAGTCACCTAGTGCAG | 22100 fluorescence intensity (a.u.)
24 | AGATAGATTAATATATGATAAATCACTAATATCAAATTTACGGAGTCACCTAGTGCAG | 5780 fluorescence intensity (a.u.)
25 | ACAACTACTGATTATATTCTTATATATTTATTGTGCTTTTCGGAGTCACCTAGTGCAG | 7360 fluorescence intensity (a.u.)
26 | CCTGCCATCAACTGAAATTGAATTTGTCAACGACAGTCAACGGAGTCACCTAGTGCAG | 9020 fluorescence intensity (a.u.)
27 | TGCTAATTTTCAAGTTTCCCATTCATCACACATGATCGCACGGAGTCACCTAGTGCAG | 14700 fluorescence intensity (a.u.)
28 | AGTTGGTAGCAATTGATTGATTCCCCGTCACACGCACGCACGGAGTCACCTAGTGCAG | 40000 fluorescence intensity (a.u.)
29 | ATCTATAATTAGATTGATATGATTATCTTGTGTACAACAACGGAGTCACCTAGTGCAG | 37800 fluorescence intensity (a.u.)
30 | AATATAACTTCTGTCAACAGTTACTATATAGCCGTGCCTCCGGAGTCACCTAGTGCAG | 3990 fluorescence intensity (a.u.)
31 | GCTCGATCATTCTACTTAATTAATTTGCAACTTAATTTGTCGGAGTCACCTAGTGCAG | 20200 fluorescence intensity (a.u.)
32 | TGAAGAAATTCAATCATATGGAAAGCTTTCCACTAAGGCCCGGAGTCACCTAGTGCAG | 6630 fluorescence intensity (a.u.)
33 | ACTAACTAATTCATAGTTTTGATCGTTTGGCCAACGGGTGCGGAGTCACCTAGTGCAG | 7540 fluorescence intensity (a.u.)
34 | AACATCAATTACAAAAGGGTTTTCTCTATCTAATAATTGACGGAGTCACCTAGTGCAG | 6300 fluorescence intensity (a.u.)
35 | TTCCCTAAATTTGCAAACGCCATATGAACATTCGTTCATGCGGAGTCACCTAGTGCAG | 5720 fluorescence intensity (a.u.)
36 | TGTATGTGTGTACTCGTAATTAGTGAGAATTTAAATTCATCGGAGTCACCTAGTGCAG | 3820 fluorescence intensity (a.u.)
37 | ATAACAATCATAGTGGCAAATTAAAGCGTGTAATGATGCACGGAGTCACCTAGTGCAG | 15500 fluorescence intensity (a.u.)
38 | CAAATTAATTTGTCCAGATGTTAAATGCTGTTGTTCTTTACGGAGTCACCTAGTGCAG | 35600 fluorescence intensity (a.u.)
39 | TGGAATGATGTGATGGAAAAGTTGAAAGTTTGTGTGTGTACGGAGTCACCTAGTGCAG | 5390 fluorescence intensity (a.u.)
40 | TTTAATTTGATGGTAAAAGGGAAATCAAGGAAAGGAGAATCGGAGTCACCTAGTGCAG | 15700 fluorescence intensity (a.u.)
41 | CCTAACTTGACAGCAATCAGTTTCAAGTGGCCAAGTGCCACGGAGTCACCTAGTGCAG | 25100 fluorescence intensity (a.u.)
42 | CGGTGACAAGCGAGATGAAAGATTGAAGCAACTCTTCACGCGGAGTCACCTAGTGCAG | 3900 fluorescence intensity (a.u.)
